Publication PMC5309803
Results are given in words; binding and its absence hold for the method and conditions named. In cells and extracts the contact can be indirect. Some results given as binding are weak or reduced against the parent protein; the word gives no strength. Tags and fused reporters may be left off the sequences shown.

T1: GFP-tagged DNAI2 (human) (UniProt Q9GZS0)
T1 sequence: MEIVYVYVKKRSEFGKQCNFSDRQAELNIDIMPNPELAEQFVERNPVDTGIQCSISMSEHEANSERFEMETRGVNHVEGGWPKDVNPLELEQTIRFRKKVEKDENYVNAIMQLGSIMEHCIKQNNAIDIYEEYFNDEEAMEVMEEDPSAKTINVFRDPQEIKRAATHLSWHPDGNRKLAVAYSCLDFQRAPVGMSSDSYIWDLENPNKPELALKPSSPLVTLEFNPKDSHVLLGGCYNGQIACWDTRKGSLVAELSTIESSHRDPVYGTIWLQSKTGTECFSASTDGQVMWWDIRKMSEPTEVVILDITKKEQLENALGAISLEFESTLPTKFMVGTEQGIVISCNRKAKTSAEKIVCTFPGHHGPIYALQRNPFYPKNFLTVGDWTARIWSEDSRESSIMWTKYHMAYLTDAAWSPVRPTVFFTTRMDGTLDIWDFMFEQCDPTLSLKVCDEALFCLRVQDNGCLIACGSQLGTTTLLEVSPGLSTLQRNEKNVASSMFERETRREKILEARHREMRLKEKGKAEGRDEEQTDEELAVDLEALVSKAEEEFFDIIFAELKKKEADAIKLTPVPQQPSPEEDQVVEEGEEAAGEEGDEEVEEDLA

T2: GFP-tagged PIH1D3 p.Trp89* (human) (UniProt Q9NQM4)
T2 sequence: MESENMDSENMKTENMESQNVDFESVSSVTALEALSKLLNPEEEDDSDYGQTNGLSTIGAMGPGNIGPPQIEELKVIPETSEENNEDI

T3: GFP-tagged PIH1D3 p.Glu43* (human) (UniProt Q9NQM4)
T3 sequence: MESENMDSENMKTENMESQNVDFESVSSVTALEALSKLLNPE

T4: GFP-tagged PIH1D3, normal full-length protein (human) (UniProt Q9NQM4)
T4 sequence: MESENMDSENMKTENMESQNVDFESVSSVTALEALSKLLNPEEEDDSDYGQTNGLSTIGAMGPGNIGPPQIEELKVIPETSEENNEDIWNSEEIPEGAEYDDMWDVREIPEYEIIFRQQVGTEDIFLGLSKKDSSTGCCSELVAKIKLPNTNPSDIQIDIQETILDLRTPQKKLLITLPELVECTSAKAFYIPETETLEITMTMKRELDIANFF

T5: GFP-tagged PIH1D3 p.Asp133Tyr (human) (UniProt Q9NQM4)
T5 sequence: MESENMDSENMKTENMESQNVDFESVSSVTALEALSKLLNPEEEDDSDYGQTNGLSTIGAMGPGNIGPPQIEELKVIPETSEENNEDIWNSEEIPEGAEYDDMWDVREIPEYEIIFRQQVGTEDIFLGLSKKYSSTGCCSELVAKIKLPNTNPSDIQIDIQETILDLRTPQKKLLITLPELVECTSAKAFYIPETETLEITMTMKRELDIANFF


Experiments:
Assay in all cases: co-IP; lysate of co-transfected HEK293 cells; IP with mouse anti-GFP (clones 7.1 and 13.1) on Dynabeads Protein G overnight at 4 °C in IP buffer (50 mM Tris 7.4, 150 mM NaCl, 1 mM EDTA, 0.5% sodium deoxycholate, 1% NP40); western blot with anti-Myc (9E10)
[1] = molecular target: T1, GFP-tagged DNAI2 (human)
[2] = molecular target: T2, GFP-tagged PIH1D3 p.Trp89* (human)
[3] = molecular target: T3, GFP-tagged PIH1D3 p.Glu43* (human)
[4] = molecular target: T4, GFP-tagged PIH1D3, normal full-length protein (human)
[5] = molecular target: T5, GFP-tagged PIH1D3 p.Asp133Tyr (human)

| binding [1] | binding [2] | binding [3] | binding [4] | binding [5] | Binder |
| --- | --- | --- | --- | --- | --- |
| binds | – | – | – | – | Myc-tagged wild-type PIH1D3 (protein, UniProt Q9NQM4 1-214) MESENMDSENMKTENMESQNVDFESVSSVTALEALSKLLNPEEEDDSDYGQTNGLSTIGAMGPGNIGPPQIEELKVIPETSEENNEDIWNSEEIPEGAEYDDMWDVREIPEYEIIFRQQVGTEDIFLGLSKKDSSTGCCSELVAKIKLPNTNPSDIQIDIQETILDLRTPQKKLLITLPELVECTSAKAFYIPETETLEITMTMKRELDIANFF |
| – | no binding | no binding | binds | no binding | Myc-tagged DNAI2 (protein, UniProt Q9GZS0-1 1-605) MEIVYVYVKKRSEFGKQCNFSDRQAELNIDIMPNPELAEQFVERNPVDTGIQCSISMSEHEANSERFEMETRGVNHVEGGWPKDVNPLELEQTIRFRKKVEKDENYVNAIMQLGSIMEHCIKQNNAIDIYEEYFNDEEAMEVMEEDPSAKTINVFRDPQEIKRAATHLSWHPDGNRKLAVAYSCLDFQRAPVGMSSDSYIWDLENPNKPELALKPSSPLVTLEFNPKDSHVLLGGCYNGQIACWDTRKGSLVAELSTIESSHRDPVYGTIWLQSKTGTECFSASTDGQVMWWDIRKMSEPTEVVILDITKKEQLENALGAISLEFESTLPTKFMVGTEQGIVISCNRKAKTSAEKIVCTFPGHHGPIYALQRNPFYPKNFLTVGDWTARIWSEDSRESSIMWTKYHMAYLTDAAWSPVRPTVFFTTRMDGTLDIWDFMFEQCDPTLSLKVCDEALFCLRVQDNGCLIACGSQLGTTTLLEVSPGLSTLQRNEKNVASSMFERETRREKILEARHREMRLKEKGKAEGRDEEQTDEELAVDLEALVSKAEEEFFDIIFAELKKKEADAIKLTPVPQQPSPEEDQVVEEGEEAAGEEGDEEVEEDLA |
